From the supplement of paper PMC4967469
A lower IC50 marks a more sensitive line; a fit beyond the top or the lowest dose is shown as a bound at that dose. AUC sums up the same curve from the lowest dose to the 256-fold higher top dose; values near 1 show little effect.

Compound: COc1ccc(C2=N[C@@H](c3ccc(Cl)cc3)[C@@H](c3ccc(Cl)cc3)N2C(=O)N2CCNC(=O)C2)c(OC(C)C)c1 [Nutlin-3a]
Test: Viability of human cancer cell lines after 72 h of drug (GDSC screen)
Description: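 Human cancer cell lines in 384-well plates, medium with 10% serum, drug for 72 h over a 256-fold dose range (nine 2-fold or five 4-fold steps up to the top dose). Adherent lines were fixed and stained with the nucleic acid dye Syto60, suspension lines read with resazurin; signal relative to control wells, capped at 0 and 100%. One two-parameter sigmoid per drug and line, fitted in a mixed model over all curves with the slope shared within a line.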

Cell Line	AUC	IC50 [µM]
BB49-HNC (head and neck, adherent, top dose 8 µM)	0.833	> 8
BC-1 (B-cell lymphoma, suspension, top dose 8 µM)	0.856	4.98
BCPAP (thyroid, adherent, top dose 4 µM)	0.987	> 4
BE2-M17 (neuroblastoma, adherent, top dose 8 µM)	0.983	> 8
BE-13 (lymphoblastic leukaemia, suspension, top dose 8 µM)	0.925	> 8
BFTC-905 (bladder, adherent, top dose 8 µM)	0.988	> 8
BHT-101 (thyroid, adherent, top dose 8 µM)	0.899	> 8
BHY (head and neck, adherent, top dose 4 µM)	0.987	> 4
BICR10 (head and neck, adherent, top dose 8 µM)	0.953	> 8
BICR22 (head and neck, adherent, top dose 8 µM)	0.964	> 8
BICR78 (head and neck, adherent, top dose 8 µM)	0.965	> 8
BL-41 (Burkitt lymphoma, suspension, top dose 8 µM)	0.994	> 8
BPH-1 (prostate, adherent, top dose 4 µM)	0.957	> 4
BT-20 (breast, adherent, top dose 8 µM)	0.984	> 8
BT-474 (breast, adherent, top dose 8 µM)	0.982	> 8
BT-483 (breast, adherent, top dose 8 µM)	0.948	> 8
BT-549 (breast, adherent, top dose 8 µM)	0.979	> 8
BV-173 (chronic myeloid leukaemia, suspension, top dose 8 µM)	0.638	1.15
Becker (glioma, adherent, top dose 8 µM)	0.965	> 8
BxPC-3 (pancreas, adherent, top dose 8 µM)	0.98	> 8
C2BBe1 (large intestine, adherent, top dose 4 µM)	0.849	3.65

Cell Line	AUC	IC50 [µM]
C3A (liver, adherent, top dose 8 µM)	0.966	> 8
C32 (melanoma, adherent, top dose 8 µM)	0.819	4.97
C-4-I (cervix, adherent, top dose 8 µM)	0.986	> 8
CA46 (Burkitt lymphoma, suspension, top dose 8 µM)	0.983	> 8
CADO-ES1 (Ewing sarcoma, suspension, top dose 8 µM)	0.936	> 8
CAL-12T (non-small cell lung carcinoma, adherent, top dose 8 µM)	0.957	> 8
CAL-27 (head and neck, adherent, top dose 8 µM)	0.985	> 8
CAL-29 (bladder, adherent, top dose 8 µM)	0.92	> 8
CAL-33 (head and neck, adherent, top dose 8 µM)	0.931	> 8
CAL-39 (cervix, adherent, top dose 8 µM)	0.981	> 8
CAL-51 (breast, adherent, top dose 8 µM)	0.892	7.18
CAL-54 (kidney, adherent, top dose 4 µM)	0.861	> 4
CAL-62 (thyroid, adherent, top dose 8 µM)	0.988	> 8
CAL-72 (osteosarcoma, adherent, top dose 8 µM)	0.958	> 8
CAL-78 (chondrosarcoma, adherent, top dose 8 µM)	0.985	> 8
CAL-85-1 (breast, adherent, top dose 8 µM)	0.964	> 8
CAL-120 (breast, adherent, top dose 8 µM)	0.937	> 8
CAPAN-1 (pancreas, adherent, top dose 8 µM)	0.985	> 8
CAS-1 (glioma, adherent, top dose 8 µM)	0.979	> 8
CCF-STTG1 (glioma, adherent, top dose 8 µM)	0.793	3.68
CCK-81 (large intestine, adherent, top dose 8 µM)	0.698	1.73

Cell Line	AUC	IC50 [µM]
CCRF-CEM (lymphoblastic leukaemia, suspension, top dose 8 µM)	0.936	> 8
CESS (acute myeloid leukaemia, suspension, top dose 8 µM)	0.879	6.22
CFPAC-1 (pancreas, adherent, top dose 8 µM)	0.941	> 8
CGTH-W-1 (thyroid, adherent, top dose 8 µM)	0.98	> 8
CHL-1 (melanoma, adherent, top dose 8 µM)	0.982	> 8
CHP-126 (neuroblastoma, suspension, top dose 8 µM)	0.821	4.8
CHP-134 (neuroblastoma, suspension, top dose 8 µM)	0.769	3.84
CHP-212 (neuroblastoma, adherent, top dose 8 µM)	0.667	1.4
CHSA0011 (chondrosarcoma, adherent, top dose 8 µM)	0.903	> 8
CHSA0108 (chondrosarcoma, adherent, top dose 8 µM)	0.981	> 8
CHSA8926 (chondrosarcoma, adherent, top dose 8 µM)	0.833	> 8
CL-11 (large intestine, adherent, top dose 8 µM)	0.937	> 8
CL-34 (large intestine, adherent, top dose 8 µM)	0.985	> 8
CL-40 (large intestine, adherent, top dose 8 µM)	0.965	> 8
CMK (acute myeloid leukaemia, suspension, top dose 8 µM)	0.98	> 8
CML-T1 (chronic myeloid leukaemia, suspension, top dose 8 µM)	0.87	5.38
COLO-205 (large intestine, suspension, top dose 8 µM)	0.943	> 8
COLO-320-HSR (large intestine, suspension, top dose 8 µM)	0.991	> 8
COLO-668 (small cell lung carcinoma, adherent, top dose 8 µM)	0.983	> 8
COLO-678 (large intestine, semi-adherent, top dose 8 µM)	0.879	> 8
COLO-679 (melanoma, adherent, top dose 8 µM)	0.856	7.74

Cell Line	AUC	IC50 [µM]
COLO-680N (oesophagus, adherent, top dose 8 µM)	0.946	> 8
COLO-684 (endometrium, suspension, top dose 8 µM)	0.982	> 8
COLO-783 (melanoma, adherent, top dose 8 µM)	0.97	> 8
COLO-800 (melanoma, adherent, top dose 8 µM)	0.983	> 8
COLO-824 (breast, adherent, top dose 8 µM)	0.986	> 8
COR-L23 (large cell lung carcinoma, adherent, top dose 8 µM)	0.917	> 8
COR-L88 (small cell lung carcinoma, adherent, top dose 8 µM)	0.985	> 8
COR-L95 (small cell lung carcinoma, adherent, top dose 8 µM)	0.986	> 8
COR-L279 (small cell lung carcinoma, suspension, top dose 8 µM)	0.991	> 8
COR-L321 (lung, suspension, top dose 8 µM)	0.978	> 8
CP50-MEL-B (melanoma, adherent, top dose 8 µM)	0.77	3
CP66-MEL (melanoma, adherent, top dose 8 µM)	0.983	> 8
CPC-N (small cell lung carcinoma, suspension, top dose 8 µM)	0.94	> 8
CRO-AP2 (B-cell lymphoma, suspension, top dose 8 µM)	0.653	1.25
CS1 (bone, adherent, top dose 8 µM)	0.978	> 8
CTV-1 (acute myeloid leukaemia, suspension, top dose 8 µM)	0.867	4.94
CW-2 (large intestine, adherent, top dose 8 µM)	0.925	> 8
Ca9-22 (head and neck, adherent, top dose 8 µM)	0.969	> 8
Ca-Ski (cervix, adherent, top dose 8 µM)	0.976	> 8
